The other results are listed elsewhere or left out. The list includes weakly bound sequences.

Among the data in paper PMC4242493 are binding signal (normalized occupancy) values, retold here.

In this test the target is MaxL homodimer (UniProt P61244). The experiment in a line: universal protein-binding microarray (PBM). To be noted: PBS-based mixture, 10 nM His-tagged protein dimer, 2% milk, 200 ng/uL BSA, 50 ng/uL salmon testes DNA, 0.02% TX-100; detection with Alexa 488 anti-His …; high values mean tight binding; most listed sequences are background and not binding sites; double strand, one strand shown.
Chain of UniProt P61244 (P61244 whole entry): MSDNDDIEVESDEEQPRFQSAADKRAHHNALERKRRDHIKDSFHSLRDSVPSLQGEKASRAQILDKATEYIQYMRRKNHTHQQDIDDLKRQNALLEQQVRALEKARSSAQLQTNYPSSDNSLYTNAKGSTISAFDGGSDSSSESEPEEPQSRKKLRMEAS
For the sequence GCACAGCC, the binding signal (normalized occupancy) is 0.0786.

For the sequence CATCGGAG, the binding signal (normalized occupancy) came out at 0.0734.

With CTTCGAGA, the binding signal (normalized occupancy) worked out at 0.068.

In the case of GATACTGC, the binding signal (normalized occupancy) turned out to be 0.0758.

Regarding AGCGCACA, the binding signal (normalized occupancy) turned out to be 0.0739.

In the case of AACCACGA, the binding signal (normalized occupancy) was 0.0902.

Consider ACCTGTTA, for which the binding signal (normalized occupancy) amounted to 0.0847.

AGGAGGTC: the binding signal (normalized occupancy) came out at 0.0719.

Regarding CTACCAAG, the binding signal (normalized occupancy) came out at 0.0704.

As to GTCATATA, the binding signal (normalized occupancy) stood at 0.0836.

ATGAGTCC: the binding signal (normalized occupancy) is 0.0802.

Take GACCCTAC: the binding signal (normalized occupancy) came out at 0.077.

For the sequence AGGCCATG, the binding signal (normalized occupancy) stood at 0.0833.

For ATTTTCTG, the binding signal (normalized occupancy) was 0.0707.

For CGTCCGAC, the binding signal (normalized occupancy) was found to be 0.0735.

For the sequence GGCGTGCA, the binding signal (normalized occupancy) was 0.0978.

For the sequence GTTGGACA, the binding signal (normalized occupancy) amounted to 0.073.

As to AATGTTCC, the binding signal (normalized occupancy) stood at 0.0722.

On to AGATATTA, for which the binding signal (normalized occupancy) turned out to be 0.0734.

With ATCAGGGG, the binding signal (normalized occupancy) came out at 0.086.

Take GGTAACAA: the binding signal (normalized occupancy) worked out at 0.0798.

Take CAGGAGGA: the binding signal (normalized occupancy) was determined as 0.0769.

AACATGAT: the binding signal (normalized occupancy) was found to be 0.0933.

In the case of GCCCCACC, the binding signal (normalized occupancy) is 0.0778.

In the case of AGACTTCG, the binding signal (normalized occupancy) amounted to 0.0745.

With ACCTTCGA, the binding signal (normalized occupancy) was determined as 0.0696.

In the case of TCCGAGAA, the binding signal (normalized occupancy) is 0.0692.

As to ATATTCTG, the binding signal (normalized occupancy) came to 0.0793.

Consider CCATCTCG, for which the binding signal (normalized occupancy) was determined as 0.0738.

In the case of CTGGAGTA, the binding signal (normalized occupancy) turned out to be 0.0757.

Regarding CTGCCCGC, the binding signal (normalized occupancy) is 0.0693.

Regarding GCGCGTTA, the binding signal (normalized occupancy) was 0.0795.

Regarding AACATAAA, the binding signal (normalized occupancy) was 0.0831.

On to AGAGGCGC, for which the binding signal (normalized occupancy) came to 0.0679.

Consider AAAGTGGT, for which the binding signal (normalized occupancy) was 0.0721.

GAATCACA: the binding signal (normalized occupancy) stood at 0.0791.

Regarding CCAATTAC, the binding signal (normalized occupancy) was 0.0792.

As for TCGACTAA, the binding signal (normalized occupancy) was found to be 0.0729.

Turning to AGTTCGTG, the binding signal (normalized occupancy) was 0.0811.

Take AAACTAGA: the binding signal (normalized occupancy) turned out to be 0.073.

As for AGACAGAT, the binding signal (normalized occupancy) came out at 0.0759.

As to TACCCAGA, the binding signal (normalized occupancy) was found to be 0.0745.

On to ACCAACCT, for which the binding signal (normalized occupancy) came to 0.0724.

On to CAAAGAAC, for which the binding signal (normalized occupancy) was determined as 0.0729.

Take CTTACTAA: the binding signal (normalized occupancy) was determined as 0.0721.

On to CGATGAAC, for which the binding signal (normalized occupancy) came out at 0.0763.

As for GTGAAGGA, the binding signal (normalized occupancy) turned out to be 0.0905.

ACCTTAGT: the binding signal (normalized occupancy) was 0.0723.

As to AAAGAGTA, the binding signal (normalized occupancy) was 0.0749.

For the sequence CCCTCCGC, the binding signal (normalized occupancy) was found to be 0.0699.

CTACTTTC: the binding signal (normalized occupancy) stood at 0.0724.

With CCGGGGCA, the binding signal (normalized occupancy) is 0.0681.

As to GGATCACA, the binding signal (normalized occupancy) was found to be 0.0829.

Consider AGCAGTTG, for which the binding signal (normalized occupancy) came to 0.0704.

For GAGTGATA, the binding signal (normalized occupancy) came to 0.0802.

Consider CACTCCGG, for which the binding signal (normalized occupancy) came to 0.077.

Consider AACCCTTG, for which the binding signal (normalized occupancy) was determined as 0.0716.

Regarding CGTGTGTA, the binding signal (normalized occupancy) was determined as 0.0944.

Turning to AGCGCTTA, the binding signal (normalized occupancy) was determined as 0.0704.

Turning to AAGAAATG, the binding signal (normalized occupancy) stood at 0.0795.

Regarding ACGTAGGA, the binding signal (normalized occupancy) is 0.0763.

For AACTGGAT, the binding signal (normalized occupancy) turned out to be 0.0715.

Turning to GGCCGTCA, the binding signal (normalized occupancy) is 0.0676.

Take GTTTAGGA: the binding signal (normalized occupancy) came out at 0.0787.

Take GAACATTC: the binding signal (normalized occupancy) came to 0.073.

On to AGGGCCAA, for which the binding signal (normalized occupancy) came out at 0.0686.

For the sequence ACCAGGTC, the binding signal (normalized occupancy) came to 0.0714.

As to CTCTAAGA, the binding signal (normalized occupancy) worked out at 0.0766.

For the sequence CCTTTGCC, the binding signal (normalized occupancy) amounted to 0.0712.

In the case of CAAGAGTA, the binding signal (normalized occupancy) turned out to be 0.0757.

With TAGGTTAA, the binding signal (normalized occupancy) is 0.0744.

As to AGTCTGTC, the binding signal (normalized occupancy) amounted to 0.0725.

Turning to CTACGCAA, the binding signal (normalized occupancy) was determined as 0.0703.

For AGTAACCA, the binding signal (normalized occupancy) amounted to 0.0736.

As for GAGCGCTC, the binding signal (normalized occupancy) came to 0.0657.

As to ATGTAGTA, the binding signal (normalized occupancy) was determined as 0.0852.

As for CTAATAGA, the binding signal (normalized occupancy) is 0.0765.

In the case of CGATGTAC, the binding signal (normalized occupancy) was determined as 0.0857.

With AAGCTGAA, the binding signal (normalized occupancy) came to 0.0694.

As for CGAATGTC, the binding signal (normalized occupancy) amounted to 0.074.

As for GCGTGGAA, the binding signal (normalized occupancy) came to 0.106.

Consider CCGATAAC, for which the binding signal (normalized occupancy) was 0.0784.

As for TGCGGACA, the binding signal (normalized occupancy) amounted to 0.0827.

In the case of CCCATCCG, the binding signal (normalized occupancy) was determined as 0.078.

Consider CGGACAAA, for which the binding signal (normalized occupancy) amounted to 0.0761.

On to CAAACTCA, for which the binding signal (normalized occupancy) was 0.0693.

For ATCCGTCG, the binding signal (normalized occupancy) is 0.0729.

As for TCGGTCCA, the binding signal (normalized occupancy) came out at 0.0746.

ACCGTCAA: the binding signal (normalized occupancy) came out at 0.0676.

In the case of ACCGCGAC, the binding signal (normalized occupancy) was 0.0704.

CCCTTCCG: the binding signal (normalized occupancy) stood at 0.0757.

Take GAATGACA: the binding signal (normalized occupancy) was 0.0776.

For the sequence CTTCACCA, the binding signal (normalized occupancy) was 0.085.

Consider ACACGGCC, for which the binding signal (normalized occupancy) is 0.0719.

Consider CAGGAGTA, for which the binding signal (normalized occupancy) was 0.0702.

As for ACTTTAGC, the binding signal (normalized occupancy) was 0.0733.

With GAGGGTCA, the binding signal (normalized occupancy) stood at 0.0732.

On to AAAACCAC, for which the binding signal (normalized occupancy) worked out at 0.0831.

Turning to ACCCCCCT, the binding signal (normalized occupancy) came to 0.0827.

GTTACATA: the binding signal (normalized occupancy) was found to be 0.0831.

AAAGATAT: the binding signal (normalized occupancy) is 0.0774.

In the case of CCAGCAGG, the binding signal (normalized occupancy) was 0.0704.

Consider CGACACCC, for which the binding signal (normalized occupancy) worked out at 0.0753.

As to AACCAACC, the binding signal (normalized occupancy) was found to be 0.0803.

As to ACCCTCCA, the binding signal (normalized occupancy) was found to be 0.0761.

As to CCTTTTAG, the binding signal (normalized occupancy) was determined as 0.0677.

GGGTGAAA: the binding signal (normalized occupancy) amounted to 0.0768.

Consider GGTTACAC, for which the binding signal (normalized occupancy) stood at 0.0762.

With ACGACTTG, the binding signal (normalized occupancy) stood at 0.0738.

In the case of CCATCCCA, the binding signal (normalized occupancy) came out at 0.0843.

Turning to GCTCCGAC, the binding signal (normalized occupancy) came out at 0.0713.

On to CACGATAG, for which the binding signal (normalized occupancy) is 0.0854.

GGAGACAA: the binding signal (normalized occupancy) came out at 0.0754.

AAACACTT: the binding signal (normalized occupancy) was determined as 0.074.

On to CCAACACG, for which the binding signal (normalized occupancy) came to 0.09.

Take CTGGTCGC: the binding signal (normalized occupancy) was determined as 0.0732.

Take CGCAGTGA: the binding signal (normalized occupancy) amounted to 0.0713.

With CAGGCTAA, the binding signal (normalized occupancy) was 0.0733.

As for GTCGGTGA, the binding signal (normalized occupancy) came to 0.0767.

For CCATATCC, the binding signal (normalized occupancy) is 0.0911.

For AGTGCGGC, the binding signal (normalized occupancy) worked out at 0.0733.

With ATAAGGTA, the binding signal (normalized occupancy) stood at 0.0816.

Turning to AATGAACG, the binding signal (normalized occupancy) worked out at 0.0824.

With AAATGCCG, the binding signal (normalized occupancy) came to 0.0733.

On to CAGATCCC, for which the binding signal (normalized occupancy) was 0.0769.

CCATAACG: the binding signal (normalized occupancy) stood at 0.0785.

Regarding CACGACCG, the binding signal (normalized occupancy) worked out at 0.0808.

Turning to CAGGGAGC, the binding signal (normalized occupancy) turned out to be 0.0716.

Consider TAGTACCA, for which the binding signal (normalized occupancy) was found to be 0.074.

Take CTCGTGGA: the binding signal (normalized occupancy) was determined as 0.103.

GGAAGAAC: the binding signal (normalized occupancy) worked out at 0.0768.

For the sequence AAGTTTGA, the binding signal (normalized occupancy) was determined as 0.0728.

Regarding CCAGTAGC, the binding signal (normalized occupancy) came to 0.0653.

Regarding CACCGATC, the binding signal (normalized occupancy) came out at 0.0738.

For ATGTGATC, the binding signal (normalized occupancy) amounted to 0.0964.

With ACACCATG, the binding signal (normalized occupancy) worked out at 0.0916.

On to CCGGACCC, for which the binding signal (normalized occupancy) was 0.0706.

Turning to GCAACGGC, the binding signal (normalized occupancy) turned out to be 0.07.

For CACTCAAG, the binding signal (normalized occupancy) came out at 0.0744.

With GACCACGA, the binding signal (normalized occupancy) stood at 0.0865.

With GGCTCAAC, the binding signal (normalized occupancy) was determined as 0.0722.

For the sequence ACCGTAAA, the binding signal (normalized occupancy) is 0.0786.

For GCGAGGGA, the binding signal (normalized occupancy) was determined as 0.0782.

For the sequence AAGCCGGA, the binding signal (normalized occupancy) is 0.065.

On to TAAACCAA, for which the binding signal (normalized occupancy) turned out to be 0.0701.

For the sequence ACTCAGGA, the binding signal (normalized occupancy) was 0.0719.

Take GATGGAGA: the binding signal (normalized occupancy) is 0.0786.

Consider TCTTGAAA, for which the binding signal (normalized occupancy) was 0.066.

Consider CGAGCGAG, for which the binding signal (normalized occupancy) worked out at 0.0704.

Consider GACAAAGC, for which the binding signal (normalized occupancy) worked out at 0.0683.

For CGGACGAG, the binding signal (normalized occupancy) was 0.0688.

Turning to ACTCGCCT, the binding signal (normalized occupancy) stood at 0.0753.

AACCCACT: the binding signal (normalized occupancy) is 0.0715.

Turning to CTATGCCA, the binding signal (normalized occupancy) came to 0.0777.

On to CACGCTAG, for which the binding signal (normalized occupancy) amounted to 0.0976.

With CGTCCAAG, the binding signal (normalized occupancy) worked out at 0.0698.

For CCGGGAAA, the binding signal (normalized occupancy) was found to be 0.0696.

Take TAAAGCAA: the binding signal (normalized occupancy) came out at 0.0737.

On to GTAATTAA, for which the binding signal (normalized occupancy) amounted to 0.0749.

With AGGCTTTC, the binding signal (normalized occupancy) was found to be 0.0709.

With CGACGGAC, the binding signal (normalized occupancy) is 0.0689.

On to GCTCCTAA, for which the binding signal (normalized occupancy) amounted to 0.0767.

As to CCCCACAA, the binding signal (normalized occupancy) is 0.0805.

Turning to GTGTCATA, the binding signal (normalized occupancy) turned out to be 0.0871.

Turning to CTAGTAGC, the binding signal (normalized occupancy) was 0.0716.

For ATAACTAC, the binding signal (normalized occupancy) amounted to 0.0842.

Regarding GATACGCC, the binding signal (normalized occupancy) was 0.0691.

For the sequence ATGGATAA, the binding signal (normalized occupancy) was determined as 0.0886.

As for AGTTCAAA, the binding signal (normalized occupancy) was 0.0684.

GTAAGCGA: the binding signal (normalized occupancy) amounted to 0.0718.

With GGGCACGA, the binding signal (normalized occupancy) worked out at 0.0767.

For the sequence CAAGTCGC, the binding signal (normalized occupancy) turned out to be 0.0719.
